Here are results for 101 compounds from ChEMBL document CHEMBL4888484, “Replenishing the malaria drug discovery pipeline: Screening and hit evaluation of the MMV Hit Generation Library 1 (HGL1) against asexual blood stage Plasmodium falciparum ,using a nano luciferase reporter read-out” (2022).

The whole screen tested about 4,800 compounds, of which about 420 (8.8%) showed an effect of 50% or more. This is one part of the list.

This assay deals with Plasmodium falciparum. The experiment in a line: Confirmatory screen in NF54 nanoGlo assay, in single point, at 2uM, 72h. Format: functional, Erythrocyte. The settings on record: timepoint 72 hour.
In the case of `COCc1cc2nn(CC(=O)Nc3ccc4c(c3)OCO4)c(=O)n2c(-c2ccccc2)n1`, the “% Inhibition” value stood at 0%. Turning to `O=S(=O)(N[C@H]1CCc2nnc(-c3ccc(F)cc3)n2C1)N1CCCCC1`, the “% Inhibition” value was found to be 4%.

Take `Cc1ccc(OCc2cccc(C(=O)N3CCC[C@@H]3CN3CCCCC3)c2)cn1`: the “% Inhibition” value is listed as 8%. In the case of `COc1ccc(OC)c(CN2C(=O)c3cc4c(OC)ccc(OC)c4n3C[C@]2(C(=O)NC2CCCCCC2)c2ccccc2)c1` it was 18%; in that of `Cc1cccc(Cc2c(C)nn(-c3nc(C)cc(C)n3)c2O)c1`, -18%; in that of `CCn1nc(C)c2c(C(=O)Nc3cc(C)ccc3C)cc(-c3ccc(C)cc3)nc21`, 7%. As for `O=S(=O)(c1ccc(Cl)cc1)N1CCN(C2CCCC2)CC1`, the figure is 2%.

On to `COc1ccc(C(OC)C(C)NC(=O)Cc2c(C)[nH]c3ccnn3c2=O)cc1` (stereo unspecified), for which the “% Inhibition” value is -2%. `O=C(NCc1cc(F)cc(F)c1)c1ccc2ccccc2n1`: the “% Inhibition” value worked out at 1%. As for `COc1ccc(N2CCN(c3nccn4nc(-c5ccc(OC)c(OC)c5)cc34)CC2)cc1`, the “% Inhibition” value is given as -10%.

For `Cn1ccc(NC(=O)c2n[nH]c3ccccc23)n1`, the “% Inhibition” value is listed as -12%. `Cc1ccc(CNc2ncnc3c2cnn3-c2ccccn2)cc1`: the “% Inhibition” value is given as 0%.

`O=C(NCc1cccs1)c1cn[nH]c1-c1ccccc1`: the “% Inhibition” value was -6%. In the case of `Cc1cccc2c(-c3cc(N)nc(N)n3)c[nH]c12` it was 85%; in that of `CCN1CCCCc2cc(C(=O)N[C@@H](C)COC)sc21`, -5%. `CC(C)(C)NC1=Nc2ccccc2N[C@]12CCCN(C(=O)c1ccc3[nH]cnc3c1)C2`: the “% Inhibition” value is -13%.

On to `Cc1cc(C)c(CC(=O)Nc2cnn(C)c2C2CC2)s1`, for which the “% Inhibition” value is reported as -2%. `Cc1cncc(C(=O)N2CC(n3cnnc3C)C2)c1`: the “% Inhibition” value was -19%. On to `CCc1sc(N(C(=O)CCc2ccccc2)c2ccc(C)cc2C)nc1-c1ccc(OC)cc1`, for which the “% Inhibition” value is on record as -1%. On to `NC(=O)NOCc1cccc(Cl)c1`, for which the “% Inhibition” value is on record as -1%.

On to `O=C(Nc1cc(N2CCCS2(=O)=O)ccc1O)c1cccc(Oc2cccc(C(F)(F)F)c2)c1`, for which the “% Inhibition” value was 100%. As to `CN(c1ncc(S(=O)(=O)c2ccccc2)c(N)n1)C1CCCCC1`, the “% Inhibition” value is -9%. In the case of `Cc1cc(Br)c2c(c1)C(O)(N1CCCC(C)C1)C(=O)N2` (stereo unspecified), the “% Inhibition” value came out at 1%.

In the case of `Nc1ccc2c(c1)Oc1cc(N)ccc1OCCOCCOCCO2`, the “% Inhibition” value is reported as -10%. For the compound `CC(C)c1cc(=O)[nH]c(-n2nc(C3CC3)cc2NC(=O)c2ccc(F)cc2)n1`, the “% Inhibition” value came out at 93%. As for `O=C(Nc1cnc(-n2ccnc2)nc1)C(c1ccccc1)c1ccccc1`, the “% Inhibition” value is given as 36%. As for `COc1cc2c(cc1OC)[C@@H](NC(=O)c1cnc(C3(C)OCCO3)s1)CCCC2`, the figure is 50%; as for `O=C(Nc1ncc(Cc2ccc(Cl)c(C(F)(F)F)c2)s1)c1ccc2nnsc2c1`, 5%. `Cn1cc(Oc2ccccc2C(=O)Nc2cccnc2O)cn1`: the “% Inhibition” value is listed as 3%. Regarding `Cc1cc(-c2ccco2)cc(Cl)c1N`, the “% Inhibition” value is -1%.

Turning to `COc1ccccc1Cn1c(=O)c2sccc2n(CC(=O)NCCc2ccc(Cl)cc2)c1=O`, the “% Inhibition” value is given as 3%.

As for `CC(C)C[C@@H]1N[C@H](C(=O)NCCN(C)C)Cc2c[nH]c3cccc1c23`, the “% Inhibition” value is reported as -8%. In the case of `Cc1cccc(NC(=O)Cn2c(C(F)(F)F)nc3cc4c(cc32)OCCCO4)c1C` it was 3%. In the case of `O=C(NCc1ccc(O)nc1)C1(Cc2cccc(Cl)c2)CCCC1` it was 3%; in that of `CC(C)N(CCCNC(=O)c1cnn2c3c(cnc12)CCCCCC3)Cc1ccccc1`, 0%; in that of `Cc1nc(N2CCOCC2)cc(N2CCN(C(=O)c3cccc(Br)c3)CC2)n1`, -6%. Consider `COc1cccc(C(=O)c2c[nH]c(C(=O)NCc3cccc(C(F)(F)F)c3)c2)c1`, for which the “% Inhibition” value was -1%. On to `COc1c(S(=O)(=O)c2ccc(C#N)cc2)cnc2ccc(Cl)cc12`, for which the “% Inhibition” value was -13%. Take `CCOC(=O)c1c(CN2CCCC2)n(C)c2cc(-c3cccnc3)c(O)c(Cn3ccnc3)c12`: the “% Inhibition” value was 60%. `NC(=O)C1CCN(CCC(=O)N2CCc3cc4ccc3[C@@H]2c2cccc(c2)OCCCNC(=O)c2cc(ccc2O)O4)CC1`: the “% Inhibition” value was found to be 96%. `CC(C)OC[C@@H](O)CN1CC(C2CCC2)C1`: the “% Inhibition” value is reported as -14%.

As for `CC(=O)NCCNC(=O)Nc1ccccc1N(C)C1CCCC1`, the “% Inhibition” value is recorded as -11%. In the case of `Cc1ccc(NC(=O)CC(=O)O)c(C)c1` it was -5%; in that of `Cn1c(=O)c2c(c(-c3ccccc3)cn2C)n(CC(=O)Nc2cc(Cl)cc(Cl)c2)c1=O`, -12%; in that of `COc1ccc2cc(S(=O)(=O)n3ccc(C)n3)ccc2c1`, -2%.

As to `Cc1cc(=O)[nH]c(-n2nc(C3CC3)cc2NC(=O)C(C)(C)Oc2ccc(Cl)cc2)n1`, the “% Inhibition” value is reported as 85%.

As to `O=C(CN1N=C(C(=O)Nc2ccccc2)CCC1=O)Nc1ccc(OC(F)(F)F)cc1`, the “% Inhibition” value is given as -12%. With `COc1ccc(Oc2nccc(-c3ccc(F)cc3)c2C#N)cc1`, the “% Inhibition” value was -3%.

As for `COc1cc2c(cc1CNc1nc(N)nc3c1CCNCC3)CCC2`, the “% Inhibition” value is on record as 21%. As for `CN(CCN(C)C1CC1)C(=O)c1cc2[nH]cnc2cc1F`, the figure is 7%; as for `CC(C)(C)C(=O)Nc1cc(Br)c(O)c(Br)c1`, 3%; as for `CCOC(=O)c1oc(NC(=O)OC(C)(C)C)nc1C(F)(F)F`, -5%. `Cc1cc2ncc(-n3cncn3)c(-c3ccccc3)n2n1`: the “% Inhibition” value is reported as -5%. As for `O=C(NC1CCN(Cc2ccco2)CC1)c1ccco1`, the figure is -9%. In the case of `O=C(N[C@@H]1CC=C(c2ccc(F)cc2)CC1)c1nc2n(n1)CCCN2` it was 11%; in that of `COc1ccc(C2C(C(=O)O)c3ccccc3C(=O)N2C2CCCCC2)cc1` (stereo unspecified), -3%. Consider `CCOc1ccccc1NC(=O)C[C@H]1CCc2nnc(C3CCCC3)n2CC1`, for which the “% Inhibition” value is -1%. Consider `COc1ccc(C2CC(c3ccccc3)N(C(C)=O)c3ncnn32)cc1` (stereo unspecified), for which the “% Inhibition” value is given as -9%. For the compound `Cc1ccc(-c2cc(C(=O)Nc3nnc(C(C)C)s3)no2)cc1F`, the “% Inhibition” value stood at 39%. For the compound `COc1ccc(C(=O)C[n+]2cc(-c3ccc(OC)cc3)n3c2CCCC3)cc1`, the “% Inhibition” value is given as 60%. In the case of `O=c1[nH]c(=O)n(S(=O)(=O)c2ccccc2)cc1F` it was 92%; in that of `COc1ccc(CNC(=O)[C@H](C)n2ccc3cc(S(=O)(=O)N4CCCC4)ccc32)cc1OC`, 0%.

For the compound `CC(C)N(C(=O)CCN1C(=O)CCC1=O)c1ccccc1Br`, the “% Inhibition” value is -19%. Turning to `N#Cc1ccc(C(=O)N[C@H]2CCCc3c2cnn3-c2ccccn2)cc1`, the “% Inhibition” value stood at 2%. For `CC1(C)OCc2cc(CNc3ccc4oc(=O)[nH]c4c3)ccc2O1`, the “% Inhibition” value is reported as 93%.

Regarding `O=C(C1CC12CCCC2)N1CCCC(S(=O)(=O)N2CCc3ccccc32)C1` (stereo unspecified), the “% Inhibition” value is reported as 5%.

`O=C(C#Cc1ccc(C(F)(F)F)cc1)NCC1(CO)CCC1`: the “% Inhibition” value was found to be 8%. `CC(C)C(NC(=O)c1ccccc1F)C(=O)NC1CCC(N(C)C)C1` (stereo unspecified): the “% Inhibition” value is on record as -16%.

On to `Cc1cccc(-n2c(=O)[nH]c3nc(NCCN(C)C)ncc3c2=O)c1C`, for which the “% Inhibition” value is given as -4%. As for `Cc1ccc(F)cc1-n1c(=O)c2sccc2n(CC(=O)Nc2ccc3c(c2)CCC3)c1=O`, the “% Inhibition” value is 13%. Regarding `CCN(CC)CCNCc1sccc1C`, the “% Inhibition” value was -11%. As for `CCNC(=O)N1CC[C@H](Oc2ccc3ccccc3n2)C1`, the figure is 48%. As to `Cc1cc(S(=O)(=O)Nc2cn(C)c(=O)n(C)c2=O)sc1Cl`, the “% Inhibition” value was 12%. As to `OCCNCc1ccc(Cl)cc1Cl`, the “% Inhibition” value came out at 0%. On to `Cc1noc(C)c1C(=O)NC[C@H](O)Cn1ccccc1=O`, for which the “% Inhibition” value is reported as 3%.

Turning to `Cc1cc(OC(=O)c2cccnc2)c(C(C)C)cc1NC1=NS(=O)(=O)c2ccccc21`, the “% Inhibition” value is reported as -8%. With `COc1ccc(CCNc2oc(-c3cccnc3)nc2C#N)cc1OC`, the “% Inhibition” value came to 31%. In the case of `CN1C(=O)[C@H](O)N(c2cccc3ccccc23)C1=O`, the “% Inhibition” value stood at 3%. Regarding `COc1cc(NC(=O)Cn2c(=O)n(C)c(=O)c3c2c(-c2ccccc2)cn3C)cc(OC)c1OC`, the “% Inhibition” value was -5%. In the case of `CC(=O)N1c2c(C)cccc2[C@@H](C)CC1(C)C`, the “% Inhibition” value stood at 3%.

On to `O=C(NC1CCCCCC1)c1cn(CC2(O)CCN(Cc3ccccc3)CC2)nn1`, for which the “% Inhibition” value is recorded as -4%.

Consider `O=C1CCC2(CCN(S(=O)(=O)c3ccc(F)cc3F)CC2)N1`, for which the “% Inhibition” value is listed as -2%. As for `Nc1cc(F)c(Br)cc1Cl`, the figure is -2%; as for `Cn1c(N2CCN(C(=O)C[C@@H]3NC(=O)c4ccccc4N=C3O)CC2)nc2ccccc21`, -11%; as for `Cc1ccc(CNC(=O)N2CC[C@H](CC(=O)N(C)Cc3ccccc3)C2)cc1`, 0%.

For the compound `Cc1cccc(NC(=O)c2cc(C)nc3c2c(C)nn3-c2ccc(F)cc2)c1`, the “% Inhibition” value is on record as -2%. Consider `CNC(=NCC(C)(C)c1ccc(OC)cc1)NC`, for which the “% Inhibition” value is given as 2%. Take `CCc1nnc2c(S(=O)(=O)Nc3cc(F)cc(F)c3)cccn12`: the “% Inhibition” value is on record as -5%. In the case of `O=C(c1ccc(COc2ccccc2Br)cc1)N1CCN(c2cccc(C(F)(F)F)c2)CC1`, the “% Inhibition” value is listed as -10%. As to `Cc1noc(C)c1CNC(=O)[C@H]1CCc2nnc(C3CCOCC3)n2CC1`, the “% Inhibition” value was -12%. For `CC(C)n1[nH]c(=O)c2c1NC(=O)C[C@H]2C1CCCCC1`, the “% Inhibition” value amounted to 7%. On to `CC[C@H](O)CCNC(=O)Nc1ncc(CC(C)C)s1`, for which the “% Inhibition” value is given as -3%. For `Cc1ccc(N2C(=O)c3ccccc3[C@@H]2c2c[nH]c3ccccc23)cc1`, the “% Inhibition” value is 43%.

On to `COC(=O)c1c(NC(C)=O)c2cc(NC3CCOCC3)cnc2n1CCc1ccc(OC)cc1`, for which the “% Inhibition” value was determined as 70%. For the compound `NS(=O)(=O)N1CCN(Cc2ccn(C3CCCC3)n2)CC1`, the “% Inhibition” value is given as -1%. On to `Cc1ccnc(-n2nccc2NC(=O)[C@H](C)Oc2ccccc2)c1`, for which the “% Inhibition” value was -1%. On to `Cn1ncc(-c2ncc(C(F)(F)F)cc2Cl)c1N`, for which the “% Inhibition” value is 1%.

On to `Cc1cc2ncn([C@@H](C)c3nc(-c4cnccn4)cs3)c2cc1C`, for which the “% Inhibition” value turned out to be 0%. As for `COc1ccc(N(C)S(=O)(=O)c2ccc3c(c2)CCN3C(=O)C2CCC2)cc1`, the figure is 1%; as for `Cc1cc2nn(CC(=O)Nc3ccc(C)c(C)c3)c(=O)n2c(-c2ccc(C(F)(F)F)cc2)n1`, -10%; as for `CC1NC2(C(=O)N(Cc3ccc(F)cc3)c3ccccc32)C2C(=O)N(c3cccc4ccccc34)C(=O)C12` (stereo unspecified), 4%.
